Laboratory results published in the supplement of paper PMC4604168 (melanoma cell lines).
The other results are listed elsewhere or left out. Single values are uncertain, as repeats are few or missing.

Legend:
Assay in all cases: cell count relative to DMSO control; melanoma cells; higher = more viable cells
Settings in all cases: library dose: low library concentration; 72 h
[1] = system: WM115
[2] = system: WM1716
[3] = system: WM1745
[4] = system: WM3526
[5] = system: WM3619
[6] = system: WM451Lu
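Further: cell number obtained by counting DAPI-stained nuclei in high-throughput microscope images with image analysis software, screen run in 1,536-well plates.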

Row | SMILES | cell count [1] | cell count [2] | cell count [3] | cell count [4] | cell count [5] | cell count [6]
1 | Nc1nc(F)nc2c1ncn2[C@@H]1O[C@H](CO)[C@@H](O)[C@@H]1O [fludarabine] + O=C(Nc1cccc(Cl)c1)Nc1ncc(CCNc2ncnc3ccsc23)s1 [SNS314] (first compound 0.2 µM, partner dose 0.0008 µM) | 84.7% | 105% | 84.5% | 42.4% | 143% | 42.1%
2 | Nc1ccn([C@@H]2O[C@H](CO)[C@@H](O)C2(F)F)c(=O)n1 [gemcitabine] + CCN(CC)CCCCNc1ncc2cc(-c3cc(OC)cc(OC)c3)c(NC(=O)NC(C)(C)C)nc2n1 [PD173074] (first compound 0.0004 µM, partner dose 0.1 µM) | 96.5% | 114% | 88.5% | 86.5% | 72.3% | 104%
3 | CO[C@H]1C[C@@H]2CC[C@@H](C)[C@@](O)(O2)C(=O)C(=O)N2CCCC[C@H]2C(=O)O[C@H]([C@H](C)C[C@@H]2CC[C@@H](OCCO)[C@H](OC)C2)CC(=O)[C@H](C)/C=C(\C)[C@@H](O)[C@@H](OC)C(=O)[C@H](C)C[C@H](C)/C=C/C=C/C=C/1C [everolimus] + Nc1ncn([C@H]2C[C@H](O)[C@@H](CO)O2)c(=O)n1 [decitabine] (first compound 0.02 µM, partner dose 0.1 µM) | 86.4% | 69% | 91.7% | 70.7% | 59.7% | 89.4%
4 | CO[C@H]1C[C@@H]2CC[C@@H](C)[C@@](O)(O2)C(=O)C(=O)N2CCCC[C@H]2C(=O)O[C@H]([C@H](C)C[C@@H]2CC[C@@H](OCCO)[C@H](OC)C2)CC(=O)[C@H](C)/C=C(\C)[C@@H](O)[C@@H](OC)C(=O)[C@H](C)C[C@H](C)/C=C/C=C/C=C/1C [everolimus] + Cn1c(Nc2ccc(C(F)(F)F)cc2)nc2cc(Oc3ccnc(-c4ncc(C(F)(F)F)[nH]4)c3)ccc21 [CHIR265] (first compound 0.02 µM, partner dose 0.08 µM) | 52.4% | 60% | 71.7% | 45.7% | 74.9% | 81.9%
5 | CC(=O)c1c(C)c2cnc(Nc3ccc(N4CCNCC4)cn3)nc2n(C2CCCC2)c1=O [palbociclib] + COC(=O)c1sccc1S(=O)(=O)Nc1ccc(Nc2ccccc2)cc1OC [GSK0660] (first compound 0.04 µM, partner dose 1 µM) | 65.3% | 65.7% | 81.6% | 64% | 83.4% | 51.9%
6 | Nc1ncn([C@H]2C[C@H](O)[C@@H](CO)O2)c(=O)n1 [decitabine] + NC(=O)Nc1cc(-c2cccc(F)c2)sc1C(=O)N[C@H]1CCCNC1 [AZD7762] (first compound 0.1 µM, partner dose 0.02 µM) | 71.6% | 74.2% | 89.5% | 89.4% | 60.2% | 89.6%
7 | CO[C@H]1C[C@@H]2CC[C@@H](C)[C@@](O)(O2)C(=O)C(=O)N2CCCC[C@H]2C(=O)O[C@H]([C@H](C)C[C@@H]2CC[C@@H](OCCO)[C@H](OC)C2)CC(=O)[C@H](C)/C=C(\C)[C@@H](O)[C@@H](OC)C(=O)[C@H](C)C[C@H](C)/C=C/C=C/C=C/1C [everolimus] + NCC(=O)Nc1ccc(-n2nc(C(F)(F)F)cc2-c2ccc3c(ccc4ccccc43)c2)cc1 [OSU03012] (first compound 0.02 µM, partner dose 1 µM) | 75.6% | 92.1% | 92.4% | 63% | 154% | 58.6%
8 | CC(=O)O[C@@]12CO[C@@H]1C[C@H](O)[C@@]1(C)C(=O)[C@H](O)C3=C(C)[C@@H](OC(=O)[C@H](O)[C@@H](NC(=O)OC(C)(C)C)c4ccccc4)C[C@@](O)([C@@H](OC(=O)c4ccccc4)[C@H]21)C3(C)C [Docetaxel] + NC1(c2ccc(-c3nc4ccn5c(=O)[nH]nc5c4cc3-c3ccccc3)cc2)CCC1 [MK2206] (first compound 0.0001 µM, partner dose 0.4 µM) | 48.7% | 34.7% | 53.1% | 37.4% | 58.6% | 62.2%
9 | CC(=O)O[C@@]12CO[C@@H]1C[C@H](O)[C@@]1(C)C(=O)[C@H](O)C3=C(C)[C@@H](OC(=O)[C@H](O)[C@@H](NC(=O)OC(C)(C)C)c4ccccc4)C[C@@](O)([C@@H](OC(=O)c4ccccc4)[C@H]21)C3(C)C [Docetaxel] + C=CCNC1=C2C[C@@H](C)C[C@H](OC)[C@H](O)[C@@H](C)/C=C(\C)[C@H](OC(N)=O)[C@@H](OC)/C=C\C=C(/C)C(=O)NC(=CC1=O)C2=O [Tanespimycin] (first compound 0.0001 µM, partner dose 0.002 µM) | 60.3% | 40.4% | 61.9% | 32.6% | 63.2% | 53.4%
10 | Nc1ccn([C@@H]2O[C@H](CO)[C@@H](O)C2(F)F)c(=O)n1 [gemcitabine] + COc1ccc(COc2ccc(Cc3cnc(N)nc3N)cc2OC)cc1 [GW2580] (first compound 0.0004 µM, partner dose 1 µM) | 94.6% | 102% | 77.1% | 92.4% | 59.3% | 98%
11 | Nc1ccn([C@@H]2O[C@H](CO)[C@@H](O)C2(F)F)c(=O)n1 [gemcitabine] + N#Cc1c(O)c2c(-c3ccc(-c4ccccc4O)cc3)csc2[nH]c1=O [A769662] (first compound 0.0004 µM, partner dose 2 µM) | 105% | 96.1% | 84% | 89.4% | 65% | 118%
12 | CC(=O)O[C@@]12CO[C@@H]1C[C@H](O)[C@@]1(C)C(=O)[C@H](O)C3=C(C)[C@@H](OC(=O)[C@H](O)[C@@H](NC(=O)OC(C)(C)C)c4ccccc4)C[C@@](O)([C@@H](OC(=O)c4ccccc4)[C@H]21)C3(C)C [Docetaxel] + COc1ccc2c(c1)CCC1C2CCC2(C)C(NCCCCCCN3C(=O)C=CC3=O)CCC12 [U73122] (first compound 0.0001 µM, partner dose 0.4 µM) | 53.3% | 32.2% | 39% | 34.7% | 50.5% | 50.3%
13 | CC(=O)c1c(C)c2cnc(Nc3ccc(N4CCNCC4)cn3)nc2n(C2CCCC2)c1=O [palbociclib] + Oc1nc(-c2ccc(C(F)(F)F)cc2)nc2c1CSCC2 [XAV939] (first compound 0.04 µM, partner dose 2 µM) | 62% | 41% | 63.2% | 57% | 61.6% | 53.2%
14 | Nc1ncn([C@H]2C[C@H](O)[C@@H](CO)O2)c(=O)n1 [decitabine] + Oc1nc(-c2ccc(C(F)(F)F)cc2)nc2c1CSCC2 [XAV939] (first compound 0.1 µM, partner dose 2 µM) | 78.7% | 52.4% | 81.3% | 77.5% | 85.8% | 104%
15 | Nc1ccn([C@@H]2O[C@H](CO)[C@@H](O)C2(F)F)c(=O)n1 [gemcitabine] + COc1ccc2c(c1)CCC1C2CCC2(C)C(NCCCCCCN3C(=O)C=CC3=O)CCC12 [U73122] (first compound 0.0004 µM, partner dose 0.4 µM) | 104% | 101% | 70.4% | 79.7% | 65% | 94.2%
16 | Nc1ncn([C@H]2C[C@H](O)[C@@H](CO)O2)c(=O)n1 [decitabine] + OCc1c[nH]c2ccccc12 [Indole-3-carbinol] (first compound 0.1 µM, partner dose 0.8 µM) | 100% | 87% | 102% | 89% | 82.2% | 88.7%
17 | CC(=O)O[C@@]12CO[C@@H]1C[C@H](O)[C@@]1(C)C(=O)[C@H](O)C3=C(C)[C@@H](OC(=O)[C@H](O)[C@@H](NC(=O)OC(C)(C)C)c4ccccc4)C[C@@](O)([C@@H](OC(=O)c4ccccc4)[C@H]21)C3(C)C [Docetaxel] + Cn1cc(/C=C2\C(=O)Nc3cccnc32)c2ccccc21 [GW441756] (first compound 0.0001 µM, partner dose 0.4 µM) | 68.1% | 34.5% | 54.9% | 37.3% | 69.2% | 50.8%
18 | CO[C@H]1C[C@@H]2CC[C@@H](C)[C@@](O)(O2)C(=O)C(=O)N2CCCC[C@H]2C(=O)O[C@H]([C@H](C)C[C@@H]2CC[C@@H](OCCO)[C@H](OC)C2)CC(=O)[C@H](C)/C=C(\C)[C@@H](O)[C@@H](OC)C(=O)[C@H](C)C[C@H](C)/C=C/C=C/C=C/1C [everolimus] + CCN(CC)CCCCNc1ncc2cc(-c3cc(OC)cc(OC)c3)c(NC(=O)NC(C)(C)C)nc2n1 [PD173074] (first compound 0.02 µM, partner dose 0.1 µM) | 76.5% | 77.6% | 93.6% | 71.2% | 75.1% | 74.5%
19 | Nc1ncn([C@H]2C[C@H](O)[C@@H](CO)O2)c(=O)n1 [decitabine] + C[C@@H]1CCN(C(=O)CC#N)C[C@@H]1N(C)c1ncnc2[nH]ccc12 [CP690550] (first compound 0.1 µM, partner dose 1 µM) | 88.3% | 81.7% | 84.6% | 108% | 93.7% | 106%
20 | CC(=O)O[C@@]12CO[C@@H]1C[C@H](O)[C@@]1(C)C(=O)[C@H](O)C3=C(C)[C@@H](OC(=O)[C@H](O)[C@@H](NC(=O)OC(C)(C)C)c4ccccc4)C[C@@](O)([C@@H](OC(=O)c4ccccc4)[C@H]21)C3(C)C [Docetaxel] + O=C(CCCCCCC(=O)Nc1ccccc1)NO [vorinostat] (first compound 0.0001 µM, partner dose 0.08 µM) | 62.8% | 27% | 54.2% | 45.2% | 79.7% | 45.7%
21 | CC(=O)O[C@@]12CO[C@@H]1C[C@H](O)[C@@]1(C)C(=O)[C@H](O)C3=C(C)[C@@H](OC(=O)[C@H](O)[C@@H](NC(=O)OC(C)(C)C)c4ccccc4)C[C@@](O)([C@@H](OC(=O)c4ccccc4)[C@H]21)C3(C)C [Docetaxel] + O=C1NC(=O)/C(=C/c2ccc(-c3ccc(F)cc3O)o2)S1 [AS252424] (first compound 0.0001 µM, partner dose 1 µM) | 70.6% | 38.6% | 61.4% | 24% | 68% | 44.7%
